The values that follow come from PubChem BioAssay AID1346428 (National Center for Advancing Translational Sciences (NCATS), 2018).

The structures appear in SMILES notation. Hit rate of the full screen: of about 48,000 compounds, about 1,200 (2.5%) were called active. Another 2% or so got no clear call; they are omitted.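 The calls were made as follows: active = activation of at least 60% and not above a set upper limit (about 1 call in 100 departs from these limits); inconclusive = activation of 40% to 60%, or above that upper limit; inactive = activation under 40%.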 The list shows a part of the results.

Chain of UniProt O75388 (O75388 whole entry, looked up, the tested form may be a part): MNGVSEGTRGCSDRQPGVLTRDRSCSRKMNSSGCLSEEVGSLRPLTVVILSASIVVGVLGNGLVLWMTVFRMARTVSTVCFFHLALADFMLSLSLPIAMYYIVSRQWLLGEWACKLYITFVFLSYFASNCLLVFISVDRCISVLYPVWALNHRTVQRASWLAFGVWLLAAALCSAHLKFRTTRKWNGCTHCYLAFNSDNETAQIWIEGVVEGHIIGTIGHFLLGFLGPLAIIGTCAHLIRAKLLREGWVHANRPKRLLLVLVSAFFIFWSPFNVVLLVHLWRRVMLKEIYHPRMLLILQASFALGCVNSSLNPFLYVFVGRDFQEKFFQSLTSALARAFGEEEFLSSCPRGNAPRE

The target in this experiment is Probable G-protein coupled receptor 32 (Homo sapiens) (UniProt O75388). Kind of experiment: qHTS for Agonists of Human Resolvin D1 Receptor DRV1. Also: 0% is about no effect. The conditions noted are these: CHO-K1 GPR32 beta-arrestin PathHunter luminescence, 90 min; at 76.9 µM; active compounds read high; zero percent set by DMSO-only wells. The method in brief:
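GPR32 activation in stably transfected CHO-K1 cells, detected as beta-arrestin recruitment by enzyme-fragment complementation. Compound exposure: 90 min, 37 °C.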
For `Cc1ccc(-n2nc3ccc(NC(=O)c4oc5ccc(C)cc5c4C)cc3n2)cc1`, the activation is inactive: -15.5%. With `CCOc1ccc(OCC(=O)NCCS(=O)(=O)N2CCN(c3ccc(F)cc3)CC2)cc1` the figure was inactive: -12.4%. For `CCc1cccc(C)c1NS(=O)(=O)c1cc(-c2cc(C)no2)ccc1C` the value was inactive: -24.1%. With `Cc1ccc(-n2nnc(-c3nsc(NC(=O)c4ccccc4)n3)c2C)cc1` the figure was inactive: -1.26%.

`O=C(CCC1CCCC1)N1CCc2c([nH]c3ccccc23)C1c1ccc(Cl)cc1` (stereo not given): the activation is inactive: -34.2%. As for `O=C1OC(=O)C2C3CCC(O3)C12` (stereo not given), the activation was inactive: -7.26%. For `CCOC(=O)n1ccn(C)c1=S`, the activation is inactive: 27.1%. `CCN(C(=O)Cn1ncc2c(=O)oc3ccc(C)cc3c21)c1cc(OC)ccc1OC`: the activation was inactive: -21.9%. With `CCCOc1ccccc1C(=O)N1CCCCC1CCN1CCOCC1` (stereo not given) the figure was inactive: -3.38%; with `O=C(Nc1ccccc1F)c1nc(SCc2ccc(F)cc2)ncc1Cl`, inactive: -4.82%; with `CC1CCc2noc(NC(=O)c3ccccc3[N+](=O)[O-])c2C1` (stereo not given), inactive: -19.8%. With `CCOC(=O)C1CCCN(S(=O)(=O)c2ccc(N3CCCCS3(=O)=O)cc2)C1` (stereo not given) the figure was inactive: -11%; with `Cc1cc(C(F)F)n2nc(C(=O)Nc3cc(Cl)ccc3C)nc2n1`, inactive: 25.2%; with `CN1CCN(C(=O)c2ccc3c(c2)N(Cc2cccc(Cl)c2)C(=O)c2ccccc2S3(=O)=O)CC1`, inactive: -22.3%. For the compound `CCCN1C(=O)C(O)(CC(=O)c2ccc(OC)c(OC)c2)c2ccccc21` (stereo not given), the activation is inactive: -6.19%. Consider `O=C(Nc1ccc(C(F)(F)F)cc1)c1cc(S(=O)(=O)NC2CCCCC2)ccc1F`, for which the activation is inactive: 2.69%. For `COc1ccccc1CNC(=O)C1CCN(S(=O)(=O)c2c(C)noc2/C=C/c2c(C)cc(C)cc2C)CC1`, the activation was inactive: -6.01%.

`O=C(Nc1ccc2nc(SCCOc3ccccc3)sc2c1)c1cccs1`: the activation is inactive: -2.84%. Consider `Cc1coc2c(C)c3oc(=O)c(CC(=O)NCc4ccccc4)c(C)c3cc12`, for which the activation is inactive: -12.8%. With `CCOc1ccccc1NC(=O)c1sc2nc(C)cc(C)c2c1N` the figure was inactive: -1.77%; with `Cc1c(Cl)cccc1NC(=O)CN1C(=O)COc2ccc(S(=O)(=O)N3CCCCCC3)cc21`, inactive: -10.8%; with `CCc1ccc(NC(=O)c2ccc(F)c(S(=O)(=O)NC3CCCCCC3)c2)cc1`, inactive: -14.5%. Regarding `COc1cccc(CNC(=O)CSc2ncc3c(n2)-c2cc(Cl)ccc2N(C)S3(=O)=O)c1`, the activation was inactive: 13.1%.

`Cc1c(C(=O)N2CCC(C)CC2)c(S(=O)(=O)N(Cc2ccccc2)C(C)(C)C)c(C)n1C`: the activation was inactive: -21.4%.

On to `CN1CCN(C(=O)C(=O)Nc2c3c(nn2-c2ccc(Cl)cc2)CSC3)CC1`, for which the activation was inactive: 3.29%.

For `Cn1c(=O)c(C(=O)O)nn(-c2ccccc2)c1=O`, the activation is inactive: 16.7%. For the compound `Cc1ccc(NC(=O)Nc2nnc(N3CCCC3)s2)cc1C`, the activation is inactive: -3.43%. Take `CCC(=O)NCCc1nc2cc(NC(=O)c3cccc(Br)c3)ccc2n1C`: the activation was inactive: -4.22%.

Regarding `CCN(CC)C(=O)c1ccc2c(c1)N(Cc1ccc(C(F)(F)F)cc1)C(=O)c1ccccc1S2`, the activation is active: 87.2%.

Take `CCOCCCn1c(=N)c(C(=O)NCc2cccnc2)cc2c(=O)n3ccccc3nc21`: the activation is inactive: -46.3%. For `Cc1ccc(N2C(=O)CCSC23C(=O)N(Cc2ccccc2)c2ccccc23)cc1` (stereo not given) the value was inactive: -7%; for `Cc1nn2c(=O)cc(COC(=O)c3cccc(NC(=O)COc4ccccc4C)c3)nc2s1`, inactive: -16%; for `CCOc1ccccc1CNC(=O)C1CCCN(c2nnc(C)c3c(C)n(-c4ccccc4)nc23)C1` (stereo not given), inactive: 11.9%.

With `COc1cccc(CNC(=O)CSC2=Nc3ccccc3N=C(c3ccc(F)cc3)C2)c1`, the activation was inactive: -15.9%.

In the case of `COC(=O)c1ccc(C(=O)OC)c(NC(=O)CN(c2ccccc2)S(=O)(=O)N(C)C)c1`, the activation was inactive: -9.63%. As for `CCOC(=O)C1CCN(C(=O)Cn2nc(CC)n3c(cc4sccc43)c2=O)CC1`, the activation is inactive: -3.82%. As to `O=C(NCc1ccccc1Cl)c1ccc(CS(=O)(=O)c2ccc(Br)cc2)o1`, the activation is inactive: 21.4%. For `NS(=O)(=O)c1cc2c(cc1Cl)NC(CSCc1ccccc1)=NS2(=O)=O` the value was inactive: -38.9%; for `COc1ccc(Nc2ncnc3sc4c(c23)CCCC4)cc1`, active: 94.2%; for `Cn1nnnc1SCCCNCc1ccccc1OCc1ccc(Cl)cc1`, inactive: -1.35%.

Take `Cc1c(CNC2CCCCC2)c(C(=O)O)c(C)n1Cc1ccc(Cl)cc1`: the activation was inactive: 10.2%. Consider `Cc1ccc(Cn2c3ccccc3c3cnn(CC(=O)Nc4cc(Cl)ccc4C)c(=O)c32)cc1`, for which the activation was inactive: -20%. For `Cc1cc(C)c(NC(=O)Cn2c(=O)n(CCC(=O)N3CCc4ccccc4C3)c(=O)c3ccccc32)c(C)c1` the value was inactive: 22.3%; for `CCN(CC)S(=O)(=O)c1ccc2c(c1)N(CC(=O)N1CCN(c3cccc(C)c3C)CC1)C(=O)CO2`, inactive: -34.6%; for `CCOc1cc(CNS(=O)(=O)c2ccc3c(c2)C(C)(C)C(=O)N3)cc(OCC)c1OCC`, inactive: -14.9%.

With `CCc1nn(CCCC(=O)NCc2ccc(OC(C)C)cc2)c(=O)c2cc3occc3n12`, the activation was inactive: -22.1%. For `O=C(CSc1n[nH]c(-c2ccccc2Cl)n1)NCCc1ccccc1` the value was inactive: -7.72%; for `COc1ccc(N2CCN(C(=O)c3cccn3-c3nnc(N4CCCC4)s3)CC2)cc1`, inactive: -3.06%; for `COc1ccc(C)cc1NC(=O)Nc1nnc(N2CCCCC2)s1`, inactive: 5.88%. As for `CCOC(=O)C1CCCN(c2nc3c(S(=O)(=O)c4ccc(CC)cc4)nnn3c3ccc(Cl)cc23)C1` (stereo not given), the activation is inactive: -4.23%.

Consider `CC(NC(=O)Cn1ccc2cc(S(=O)(=O)N3CCCCCC3)ccc21)c1ccccc1` (stereo not given), for which the activation was inactive: 15.1%.

For `Cc1ccc(NC(=O)c2sc3nc(-c4cccs4)ccc3c2N)cc1F`, the activation was inactive: 21.1%. With `CCN(CC)C(=O)c1c(NC(=O)c2cccc(C)c2)sc2c1CCC(C)C2` (stereo not given) the figure was inactive: -29%; with `CCN1CCC(N(Cc2ccc3c(c2)OCO3)C(=O)Nc2cc(F)ccc2F)CC1`, inactive: -6.68%; with `CCCCc1nnc(SCc2cc(=O)c3cc(F)ccc3[nH]2)n1C`, inactive: -7.7%. With `COc1ccc(-c2cc(C(F)(F)F)nc(SCCC(=O)Nc3ccc(OC)c(OC)c3)n2)cc1` the figure was inactive: -4.23%; with `CC(C)(C)NC(=O)C1CCN(c2nc3ccccc3nc2C(F)(F)F)CC1`, inactive: -9.46%.

With `COc1ccc(C(=O)NCCn2cc(SCc3c(F)cccc3Cl)c3ccccc32)cc1`, the activation is inactive: -2.47%.

On to `Cc1ccc(-n2ncc3c(NC4CCCCCC4)ncnc32)cc1`, for which the activation is inactive: 27.5%. For `COc1ccc(CNC(=O)CN2C(=O)CC(c3ccc(C)c(C)c3)=Nc3ccccc32)cc1` the value was inactive: -0.749%; for `O=C(c1cnc(N2CCOCC2)c2ccccc12)N1CCN(c2ccccc2)CC1`, inactive: -9.62%; for `O=c1[nH]c2cc(Br)ccc2n2cccc12`, inactive: -1.67%. With `O=C(O)c1ccccc1Nc1cc(Cl)ccc1C(=O)O` the figure was inactive: -27.6%. With `Cc1cc(C)c(-c2n[nH]c3c2C(c2ccccc2F)N(Cc2ccco2)C3=O)c(O)c1` (stereo not given), the activation was inactive: -12.2%.

As for `COc1cc(NC(=O)N2CCc3c(sc4c3CCCC4)C2c2ccccc2)cc(OC)c1OC` (stereo not given), the activation is inactive: -9.64%.

Take `CCN(CC)CCSc1c(C(C)C)cnc2c1c(=O)n(C)c(=O)n2C`: the activation is inactive: -16.6%. For `O=C(CN1C(=O)COc2ccc(S(=O)(=O)NC3CCCC3)cc21)NCc1ccc(Cl)cc1` the value was inactive: 2.23%; for `CCOc1ccc(CNC(=O)CSc2nnc(C)c3c(C)n(-c4ccc(Cl)cc4)nc23)cc1`, inactive: 19.1%; for `COc1ccc(OC)c2sc(N3CCN(C(=O)c4ccco4)CC3)nc12`, inactive: -9.17%. With `Cc1cccc(NC(=O)CSc2nc3ccc(NC(=O)COc4ccccc4C)cc3s2)c1` the figure was inactive: -4.91%. On to `Cc1c(C(=O)OCCOc2ccccc2)[nH]c2c1C(=O)CC(c1ccc(C(C)(C)C)cc1)C2` (stereo not given), for which the activation was inactive: 8.66%. For `CCn1c2c(c(=O)n3ncc(C(=O)Nc4cc(Cl)ccc4OC)c13)CN(Cc1ccc(OC)cc1)CC2`, the activation is inactive: -16.7%. In the case of `O=C(NCc1ccc(Cl)cc1)C1CCN(c2nn3cc(-c4ccc(F)cc4)nc3s2)CC1`, the activation is inactive: 4.43%. Turning to `CC1CN(C(=O)NCc2ccccc2)c2cc(Cl)ccc2O1` (stereo not given), the activation is inactive: -21%. With `CCCNC(=O)CCC(=O)N1Cc2cccc(OC)c2Oc2ncccc21` the figure was inactive: -3.79%; with `O=C(c1ccc2c(c1)OCCO2)N1CCCCC1`, inactive: 4.68%; with `COc1ccc(Cl)cc1NC(=O)c1cc(-c2ccc3c(c2)OCO3)on1`, inactive: 10.8%. With `COc1ccc(NC(=O)c2nc(S(C)(=O)=O)ncc2N(Cc2ccc(C)cc2)Cc2ccco2)cc1Cl` the figure was inactive: -15.8%. In the case of `COc1cccc(CNC(=O)c2cc(-c3ccc(Cl)s3)nc3ccccc23)c1`, the activation is inactive: -1.11%. Turning to `COc1ccc(C)cc1NC(=O)N1CCN(S(=O)(=O)c2ccc3c(ccn3C)c2)CC1`, the activation is inactive: -0.304%. With `CCCCc1cc(=O)oc2cc(C)c3c(C(C)(C)C)coc3c12` the figure was inactive: -4.32%; with `Cc1ncc(CO)c2c1Oc1nc(-c3ccc(Cl)cc3)nc(SCC(=O)N3CCCCC3)c1C2`, inactive: 4.06%. With `Cc1cccc(CSc2nc3c(sc4ccccc43)c(=O)n2CCC(=O)NC(C)C)c1` the figure was inactive: -23.6%; with `CCN(C(=O)CCc1nc(-c2ccc(C)cc2)no1)c1cccc(C(F)(F)F)c1`, inactive: -17.4%. For `CCCS(=O)(=O)N1CC(=O)N(c2cccc(F)c2)C(C)(C(=O)NC2CCCCCC2)C1` (stereo not given) the value was inactive: 1.34%.
